According to PMC12136788:
The other results are listed elsewhere or left out.

B1: chr14:23058014:23058015:-_ENSG00000129562_ENST00000250498|hu_hu|FALSE|FALSE (ssRNA)
RNA: GGGAGUUCUACAGUCCGACGAUCAGCAGGUACGCGUCCAGCAACUUCAGACGCUGCGGAGUGGAGCUCAAGUACUCUUCUAAGAACCGCGAAAUGACAGACACUACCGACGCCGACAUAACUGCACGCAAGGUACUCCAGUCCCAACAGAGGAUUGAGCAUCA
B2: chr12:39756943:39756944:-_ENSG00000139116_ENST00000544797|hu_mus|hu_hu_hu_mus_False|1_88 (ssRNA)
RNA: GGGAGUUCUACAGUCCGACGAUCGGUUUGGCUGUUACCCCCAAGGGAAUCCUGUAGGAGUCUUGUCAGCUUAGAGUCUCUGUAAGGGACAUGGGUGGCUCUCUUGCUCUUGUCCCCCAAGGCGCUGAUUACAUUCCCAAGUGCCAACAGAGGAUUGAGCAUCA
B3: chr3:176767854:176767855:-_ENSG00000177565_ENST00000430069|hu_hu|hu_hu_hu_mus_False|28_88 (ssRNA)
RNA: GGGAGUUCUACAGUCCGACGAUCGACAUCCUUGUUACUGGGCACGUCUUGCCCUCCUUCCCGUAUGCAGUGUCUAAGCACGAGCUGCGUAGGGCCACUCGUGCUGUUCUCACUAAGGUUCCAGAUUCUUGCCGUGGAGUCUCCCAACAGAGGAUUGAGCAUCA
B4: chr7:54825262:54825263:-_ENSG00000132432_ENST00000352861|hu_hu|hu_hu_hu_mus_False|48_48 (ssRNA)
RNA: GGGAGUUCUACAGUCCGACGAUCCUGCCGGCUGGGCUCCACAAACUGCAUUACCUGAUCCAUGUUUGUUGGAUGGCGGAUUGAGAGUGCCAGGGACCGUAGCUCAGGAGAGAACCGAGCCCAACGGAACCGGAAGCUGGCAACCAACAGAGGAUUGAGCAUCA
B5: chr10:33190432:33190433:-_ENSG00000150093_ENST00000302278|hu_mus|hu_hu_hu_mus_True|88_98 (ssRNA)
RNA: GGGAGUUCUACAGUCCGACGAUCUACAUUUUCCAAACCUGCACAUGAGUAAAACCAUGGCCACAGAGCCCCAAAACUACCCUACUGUGACUAAGAUGCUGCUGCUGUGAGCUUGGUGUUGCAAAAUCCGCCUGAGUAGGAUUCCAACAGAGGAUUGAGCAUCA
B6: chr2:48026839:48026840:+_ENSG00000116062_ENST00000540021|hu_hu|hu_hu_hu_mus_False|38_88 (ssRNA)
RNA: GGGAGUUCUACAGUCCGACGAUCAUAGUGAGCCACUAGCGUCCUAAAUCUCGAACAGUGGCGGUCAUCCGAAAACUGGCCGAUGAAAAACUUGCCCAGUGAAGUAUCCACAAAGCAAACACCAUACACACGAGUGUGACCAGACAACAGAGGAUUGAGCAUCA

Each binder was assayed against T1, UNK ZnF1-3 (human, UniProt Q9C0B0 31-174) (assay: nsRBNS (natural sequence RNA bind-n-seq); RBNS binding buffer (assumed for nsRBNS): 25 mM Tris pH 7.5, 150 mM KCl, 3 mM MgCl2, 0.01% Triton X-100, 500 ug/ml BSA, 20 U/ml SUPERase-In, 4 C; UNK is unkempt and MSI1 is Musashi-1; names of the RNAs are library labels; protein concentration not given here; high values mean tight binding).
T1 sequence: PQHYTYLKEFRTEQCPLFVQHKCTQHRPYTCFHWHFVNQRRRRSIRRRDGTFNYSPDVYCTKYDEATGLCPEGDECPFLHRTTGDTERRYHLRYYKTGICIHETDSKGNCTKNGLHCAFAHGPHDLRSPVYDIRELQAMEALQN

B1 was tested. Which binding signal did it give?
Its binding signal is 1.33 enrichment R.

For B2, which binding signal is on record?
The binding signal was 0.61 enrichment R.

With B3 as the binder, how does the binding signal read?
The binding signal was 0.377 enrichment R.

For B4, which binding signal is on record?
Its binding signal is 1.21 enrichment R.

Which binding signal does the source give for B5 here?
Its binding signal is 1.15 enrichment R.

For B6, which binding signal is on record?
The binding signal was 1.12 enrichment R.
